From PubChem BioAssay (NCATS)
Values joined by “and” are separate entries in the source; they are usually repeats but may differ in a detail not shown here. Equal entries are not always repeated. The inconclusive results got no clear call from the source; some entries with a clear call stand among them for comparison. Potencies beside an inconclusive call are fits to weak or partial responses and may not hold up. Active and inactive are the calls of the source. Calls follow the shape of the dose curve; as a rule, active = well fitted curve in the direction sought with a large enough effect; inconclusive = small, poorly fitted or top-dose-only effect, or another doubt; inactive = no such curve, though single readings can be large; an effect the other way counts as inactive or inconclusive.

Assays:
[1] = target: Cytochrome P450 3A7 (Homo sapiens) (UniProt P24462); assay: Cytochrome P450 family 3 subfamily A member 7 (CYP3A7) small molecule antagonists: luciferase biochemical qHTS assay (AID 1963596); settings: P450-Glo CYP3A7 enzyme luminescence, 1 h; series mostly up to 57.4 µM; also: nearly all actives have a fitted effect of over 40% in size; as to activity change, negative = inhibition: % is scaled to controls: 0 for no effect and ±100 for the full control effect
Procedure, shortened: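 Recombinant CYP3A7 P450-Glo luminescent assay: enzyme-proluciferin substrate mix preincubated with compound 10 min at room temperature, reaction started with NADPH regeneration system for 1 h. Luciferin detected by luminescence; ketoconazole as positive control.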

[2] = Viability qHTS for spleen associated tyrosine kinase inhibitor (SYKi) naive MV4-11 cells (AID 1963823); settings: MV4-11 AML viability, CellTiter-Glo luminescence, 72 h; viability (% of control): at 45 µM (top of the series); also: nearly all actives have a fitted effect of over 40% in size
Procedure, shortened: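 SYK inhibitor-naive MV4-11 cells, 500 per well, exposed to compounds for 72 hr at 37 C, 5% CO2. Viability read as CellTiter-Glo luminescence after 10 min at room temperature.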

[3] = Viability qHTS for spleen associated tyrosine kinase inhibitor (SYKi) drug resistant MV4-11 cells (AID 1963824); settings: SYKi-resistant MV4-11 viability, CellTiter-Glo, 72 h; series mostly up to 45 µM; also: nearly all actives have a fitted effect of over 35% in size
Procedure, shortened: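 CellTiter-Glo luminescence, read 10 min after reagent addition, reports viability after a 72 hr compound exposure. Cells are an MV4-11 line made resistant to SYK inhibition, seeded at 500 per well onto compound-containing plates.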
Potency is read from the fitted curve at half-maximal effect; tags tell the direction and shape of the fitted curve.

UniProt P24462, sequence (P24462 whole entry, looked up): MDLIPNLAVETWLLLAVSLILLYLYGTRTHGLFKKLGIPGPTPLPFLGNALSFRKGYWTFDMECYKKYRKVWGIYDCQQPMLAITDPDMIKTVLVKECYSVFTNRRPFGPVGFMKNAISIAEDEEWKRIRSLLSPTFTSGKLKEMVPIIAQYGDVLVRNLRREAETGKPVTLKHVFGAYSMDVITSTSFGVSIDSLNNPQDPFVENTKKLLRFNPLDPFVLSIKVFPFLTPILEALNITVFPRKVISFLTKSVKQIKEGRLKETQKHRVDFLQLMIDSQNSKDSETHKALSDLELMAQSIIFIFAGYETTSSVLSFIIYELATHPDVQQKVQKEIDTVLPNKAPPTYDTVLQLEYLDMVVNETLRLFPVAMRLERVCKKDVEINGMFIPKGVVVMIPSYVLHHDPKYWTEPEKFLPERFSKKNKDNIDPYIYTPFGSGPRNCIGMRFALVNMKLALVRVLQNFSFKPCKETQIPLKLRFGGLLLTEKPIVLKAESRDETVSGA

Structure (SMILES) | Potency [1] | Potency [2] | Potency [3] | activity change, negative = inhibition [1] | viability (% of control) [2] | viability, % of control [3]
CS(=O)(=O)Nc1ccc([N+](=O)[O-])cc1Oc1ccccc1 | inconclusive: 19.5 µM [inhibitor, single point] | inconclusive: 9.44 µM [cytotoxic, partial curve, poor fit] and inconclusive: 14.8 µM [cytotoxic, partial curve, poor fit] | inconclusive: 13.3 µM [cytotoxic, single point] | – | – | –
O=C(O)[C@H]1CCCC[C@H]1C(=O)N1CCc2ccccc2[C@H]1CN1C(=O)c2ccccc2C1=O | inconclusive: 28.2 µM [inhibitor, partial curve, poor fit] | inconclusive: 8.2 µM [cytotoxic, partial curve] | inconclusive: 5.17 µM [cytotoxic, partial curve] | – | – | –
Cc1ccc(NC(=O)C(=O)NC2CC(C)(C)NC(C)(C)C2)cc1 | inconclusive: 37.9 µM [inhibitor, single point] | inconclusive: 0.0326 µM [rising, full curve, poor fit] | inconclusive: 0.461 µM [rising, full curve] | – | – | –
COc1ccc(-c2cnc3c(-c4cccc5ncccc45)cnn3c2)cc1 | inconclusive: 2.24 µM [inhibitor, full curve] | inconclusive: 2.31 µM [cytotoxic, full curve, poor fit] | inconclusive: 16.4 µM [cytotoxic, partial curve, poor fit] | – | – | –
N[C@H](C(=O)O)c1ccc(O)cc1 | inconclusive: 0.107 µM [inhibitor, full curve, poor fit] | inactive | inactive | – | – | –
CCC(=O)NS(=O)(=O)c1ccc(-c2c(-c3ccccc3)noc2C)cc1 | inconclusive: 0.0251 µM [inhibitor, full curve, poor fit] | inconclusive: 5.8 µM [cytotoxic, partial curve] | inconclusive: 37.2 µM [cytotoxic, partial curve, poor fit] and active: 8.2 µM | – | – | –
CC[C@H]1OC(=O)[C@H](C)[C@@H](O[C@H]2C[C@@](C)(OC)[C@@H](O)[C@H](C)O2)[C@H](C)[C@@H](O[C@@H]2O[C@H](C)C[C@H](N(C)C)[C@H]2O)[C@](C)(O)C[C@@H](C)CN(C)[C@H](C)[C@@H](O)[C@]1(C)O | inactive | inactive | inactive | – | – | –
O=C(O)c1c(O)c(-c2ccccc2)nc2ccccc12 | inconclusive: 21.9 µM [inhibitor, single point] | inconclusive: 0.119 µM [cytotoxic, partial curve, poor fit] | inconclusive: 2.99 µM [cytotoxic, full curve] | – | – | –
CC1CCN(c2cc(NC(=O)c3ccccc3)ncn2)CC1 | inconclusive: 5.35 µM [inhibitor, full curve] | inconclusive: 20.6 µM [cytotoxic, partial curve] | inconclusive: 9.2 µM [cytotoxic, partial curve] | – | – | –
CC1(C)C(=O)C(C)(C)c2cc(C(=O)Nc3ccc(C(=O)O)cc3)ccc21 | inconclusive: 25.1 µM [inhibitor, single point] | inconclusive: 0.231 µM [cytotoxic, full curve] | inconclusive: 2.06 µM [cytotoxic, partial curve] | – | – | –
CO[C@@]1(NC(=O)CSCC#N)C(=O)N2C(C(=O)O)=C(CSc3nnnn3C)CS[C@@H]21 | inconclusive: 38.9 µM [inhibitor, single point] | inconclusive: 0.15 µM [cytotoxic, full curve, poor fit] | inconclusive: 0.266 µM [cytotoxic, full curve, poor fit] | – | – | –
Cc1ccccc1N1CCN(CCc2nnc3n2CCCC3)CC1 | inconclusive: 24.5 µM [inhibitor, partial curve, poor fit] | inconclusive: 0.668 µM [rising, full curve, poor fit] | inactive | – | – | –
COc1ccc2nc(-c3cc(OC)c(OC)c(OC)c3)cc(C(=O)NCC(=O)Nc3ccc(C(C)=O)cc3)c2c1 | inconclusive: 10 µM [inhibitor, partial curve] | inconclusive: 3.26 µM [cytotoxic, partial curve] | inconclusive: 4.61 µM [cytotoxic, partial curve] | – | – | –
O=C(Nc1ccc(C(F)(F)F)cn1)N1CCN(c2ncccc2C(F)(F)F)CC1 | inconclusive: 15.8 µM [inhibitor, single point] | inconclusive: 14.6 µM [cytotoxic, partial curve] | inconclusive: 18.4 µM [cytotoxic, single point] | – | – | –
Fc1ccc(-c2c3cccc(C(F)(F)F)c3nn2Cc2ccc(F)cc2Cl)cc1 | inactive | inconclusive: 2.91 µM [cytotoxic, partial curve] | inconclusive: 23.1 µM [cytotoxic, partial curve] | – | – | –
Cc1noc(=O)c2ccc(NC(=O)C(O)(CC(C)(C)c3cccc4c3OCC4)C(F)(F)F)cc12 (centres undefined) | inactive | inconclusive: 6.51 µM [cytotoxic, full curve] | inconclusive: 7.31 µM [cytotoxic, partial curve] | – | – | –
Cc1c(C(=O)Nc2ccc(N3CCC(N4CCOCC4)CC3)c(C#N)c2)cnn1-c1ccc(Cl)cc1 | inconclusive: 3.55 µM [inhibitor, full curve] | active: 0.116 µM | inconclusive: 0.116 µM [cytotoxic, full curve] | – | – | –

Structure (SMILES) | Potency [1] | Potency [2] | Potency [3] | activity change, negative = inhibition [1] | viability (% of control) [2] | viability, % of control [3]
O=C(CC1CC(c2ccc(F)cc2F)=NO1)N1CCOCC1 (centres undefined) | inconclusive: 23.9 µM [inhibitor, partial curve, poor fit] | inactive | inactive | – | – | –
C[N+]12CCC(CC1)C(OC(=O)C(O)(c1ccccc1)c1ccccc1)C2 (centres undefined) | inactive | inconclusive: 0.0008 µM | inconclusive: 10.6 µM [cytotoxic, partial curve, poor fit] | – | – | –
O=C1N(CC2CCCCN2)CCN1c1ccccc1 (centres undefined) | inactive | inactive | inactive | – | – | –
Cc1cc(Nc2ccc(NC(=O)c3ccc(Nc4ccnc5ccccc45)cc3)cc2)nc(N)n1 | inactive | inconclusive: 0.517 µM [cytotoxic, full curve] | inconclusive: 0.92 µM [cytotoxic, full curve] | – | – | –
CC(C)(C)Oc1ccc(OCC2Cc3ccccc3CN2C(=O)c2cccc3ccccc23)cc1 (centres undefined) | inconclusive: 7.56 µM [inhibitor, partial curve] | inconclusive: 2.59 µM [cytotoxic, full curve, poor fit] | inconclusive: 5.17 µM [cytotoxic, full curve] | – | – | –
Cl/C(=C\n1cncn1)c1ccc(Cl)cc1Cl | inactive | inconclusive: 29.9 µM [cytotoxic, single point] | inconclusive: 26.6 µM [cytotoxic, single point] | – | – | –
Cc1c(F)cc2c(=O)c(C(=O)O)cn3c2c1CCC3C (centres undefined) | inactive | inconclusive: 10.6 µM [cytotoxic, partial curve, poor fit] | inactive | – | – | –
CCc1ccc(C(=O)C(C)CN2CCCCC2)cc1 (centres undefined) | active: 30.9 µM | inconclusive: 4.73 µM [cytotoxic, partial curve, poor fit] | inconclusive: 11.9 µM [cytotoxic, partial curve] | – | – | –
CN(C)CCCO[C@@H]1[C@H]2OC(C)(C)O[C@H]2O[C@@H]1C(O)CO (some centres undefined) | inactive | inconclusive: 0.0047 µM [cytotoxic, full curve, poor fit] | inconclusive: 0.0047 µM [cytotoxic, full curve, poor fit] | – | – | –
CC(C)(F)C[C@@H](N[C@@H](c1ccc(-c2ccc(S(C)(=O)=O)cc2)cc1)C(F)(F)F)C(=O)NC1(C#N)CC1 | inactive | inconclusive: 6.51 µM [cytotoxic, partial curve, poor fit] | inconclusive: 14.6 µM [cytotoxic, partial curve] | – | – | –
Nc1nc2ncc(CNc3ccc(C(=O)N[C@@H](CCC(=O)O)C(=O)O)cc3)nc2c(=O)[nH]1 | inactive | inactive | inconclusive: 0.0009 µM | – | – | –
O=C(O)c1ccc(S(=O)(=O)N(Cl)Cl)cc1 | inactive | inactive | inactive | – | – | –
O=C(NCc1ccc(F)cc1)C(=O)c1c[nH]c2ccccc12 | inconclusive: 10.7 µM [inhibitor, partial curve] | inconclusive: 14.6 µM [cytotoxic, partial curve, poor fit] | inconclusive: 20.6 µM [cytotoxic, partial curve] | – | – | –
CC(C)(C)NCc1cc(Nc2ccnc3cc(Cl)ccc23)c2c(c1O)CCCC2 | – | – | – | inactive: -5.38% [at 11.5 µM] | inactive: 90.1% [at 0.588 µM] | inactive: 102% [at 0.588 µM]
Cc1cc(C(=O)N2CCCCc3ccccc32)ccc1CNC(=O)N1CCC[C@H]1C(=O)N(C)C | inconclusive: 14.1 µM [inhibitor, partial curve] | inconclusive: 25.9 µM [cytotoxic, single point] | inconclusive: 20.6 µM [cytotoxic, single point] | – | – | –
CC1c2ccccc2CN1NC(=O)c1ccc(Cl)c(S(N)(=O)=O)c1 (centres undefined) | inactive | inconclusive: 0.0013 µM [rising, full curve, poor fit] | inconclusive: 5.96 µM [cytotoxic, partial curve, poor fit] | – | – | –
